# Assay results published in paper PMC12136788.
# Some of the results follow.
# T1: UNK ZnF1-3 (human, UniProt Q9C0B0 31-174)
# T1 sequence: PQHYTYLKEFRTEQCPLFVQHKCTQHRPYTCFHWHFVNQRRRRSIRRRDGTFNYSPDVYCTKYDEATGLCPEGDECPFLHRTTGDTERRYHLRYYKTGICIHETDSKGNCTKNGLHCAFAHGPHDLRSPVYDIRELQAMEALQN
# B1: chr3:10015032:10015033:+_ENSMUSG00000027533_ENSMUST00000029046|mus_mus|mus_mus_mus_hu_True|8_28 (ssRNA)
# RNA: GGGAGUUCUACAGUCCGACGAUCGUUUUUACCAUCACAAGUGAUGAUACAAUCUGGCUUGGCCAUUGCGCCCAUUUUUCGCAAAGCUAUUCCCACUCCUAGCUCCUUCAUGUACUCAUCAAAGCCUUGGCUUUCCACCAGGCGCAACAGAGGAUUGAGCAUCA
# B2: chr1:163295886:163295887:+_ENSG00000143228_ENST00000271452|hu_hu|FALSE|FALSE (ssRNA)
# RNA: GGGAGUUCUACAGUCCGACGAUCGGUUUUUACCAUCAGCUCCUGUUAAGAUCUUAUUGCGAAUAUGAAUCACAAUCUCAGCUACAUUAUAUCUGGGGAAAGACAAAGUUUCCAUCUUGGAAGUUUCCUGUUAAUCUCCCAGGCCAACAGAGGAUUGAGCAUCA
# B3: chr4:34758383:34758384:-_ENSMUSG00000039967_ENSMUST00000047950|mus_mus|FALSE|FALSE (ssRNA)
# RNA: GGGAGUUCUACAGUCCGACGAUCUUCAUCAUCUGAACCAUCGUUGUCAUUAAACACUAUGAAAUCUGUUGAAUAAAGACUAUUCUUUUUUAUGGGUCGCUGUUCCUGUUUAGCCACAGUAUUAAUAUUAGUCUUUUGAUUUUCCAACAGAGGAUUGAGCAUCA
# B4: chr3:148802587:148802588:-_ENSG00000071794_ENST00000310053|hu_mus|hu_hu_hu_mus_False|1_38 (ssRNA)
# RNA: GGGAGUUCUACAGUCCGACGAUCUCCAACAACUUGUCCUCUCAUAGUUCCAAAUAAAACCAAAUCUUGCUCUUCAUCACUCGUUAGGAAGUCAUCUGGAGGGAUAAUGUCUUGGAAUUCAAAAUGUGGCAAGAAAGUUGGAUACAACAGAGGAUUGAGCAUCA
# B5: chr4:42581876:42581877:-_ENSG00000124406_ENST00000264449|hu_mus|FALSE|FALSE (ssRNA)
# RNA: GGGAGUUCUACAGUCCGACGAUCGCCACCAUAGUGUAGAUGGAGGUACCAGUCUUUCCCGGAAUGCCUUCGGUUCCAAAUGGCUGAGCCCACAGAACACACAAGAGACAUGGCAAUUAAGAUGCAAAAUAAAAUCAGAAUUUGCAACAGAGGAUUGAGCAUCA
# B6: 56928950_56934448_117_3pUTR_ENSMUSG00000042557_ENSMUST00000167715|mouse|control|control (ssRNA)
# RNA: GGGAGUUCUACAGUCCGACGAUCGAUUCCUGGUCAUCCAAACGUCGCUUCAUUCUGCACUCAUGCUCAGGGAUGCACUACAAACUGUUUCAUGUGUGCAAAGGUUCAACUGUGAGAGAUGAAUGAGUUCUGAAGGAGGAUGGUCAACAGAGGAUUGAGCAUCA
# B7: chr12:118855022:118855023:+_ENSG00000111707_ENST00000543473|hu_hu|FALSE|FALSE (ssRNA)
# RNA: GGGAGUUCUACAGUCCGACGAUCUACACUGGCCCCAAUUAGAAGUUCAAAAACAAAAAUUAAGUUAGGUAGUCAGACAUCUAUAAAUACUAGUAUCCGCAUGAAUGAAAACACCCUGGCUUUGGUAUGGCUACAGAAAUCCAUCAACAGAGGAUUGAGCAUCA
# B8: chr12:109046171:109046172:-_ENSG00000110880_ENST00000261401|hu_mus|FALSE|FALSE (ssRNA)
# RNA: GGGAGUUCUACAGUCCGACGAUCCUUGCUGCUGAAUGUGUUGAGGUAGUGGACAUAUGGGGAUUCAUCCGUGAUCUCAAAAUAGCGGAUACUGCUGUCACCCUUCCCACAUAAGUAGAUGAUGCUGGUGUCCGGAUCGUAGAACAACAGAGGAUUGAGCAUCA
# B9: chr5:138643207:138643208:+_ENSG00000015479_ENST00000510056|hu_mus|motif|central (ssRNA)
# RNA: GGGAGUUCUACAGUCCGACGAUCCAUCCUUCCAAGAGAUGCUGGCAUACUUAAAGACUGGGUAGCAGCAGCAAGAAGGCCGGUUCCUGCUGCAGACAGGUCACGCCCAUGACCCUGUGAAUCCCUACCGAGAGAUGACUGCUGCAACAGAGGAUUGAGCAUCA
# B10: chr4:144460044:144460045:+_ENSG00000153147_ENST00000283131|hu_mus|motif|central (ssRNA)
# RNA: GGGAGUUCUACAGUCCGACGAUCACGGUCCAUAGCCUGAAGAUCAACUUGCGGAUUCCAAUCUGAGUCAUAUAAAAUGACGGCAUCAGCAGUUGCAAGAUUGAUGCCCAGACCACCAGCACGUGUGCUUAGCAUAAAUACAAACAACAGAGGAUUGAGCAUCA
# B11: chr1:74670475:74670476:+_ENSG00000254685_ENST00000370898|hu_hu|FALSE|FALSE (ssRNA)
# RNA: GGGAGUUCUACAGUCCGACGAUCGUCCUGUUGACAAAAAUUUCCAGGUCUACACACAGCAUUAAACUGAUACAUCUUUUCUAUGCUGGGCUUAUGAAGGAAACGAUGGCAAGACCUGUAUUCAAGGUCUCUAUGUUUUAAAUCCAACAGAGGAUUGAGCAUCA
# B12: chr3:167437968:167437969:-_ENSG00000114209_ENST00000497056|hu_mus|FALSE|FALSE (ssRNA)
# RNA: GGGAGUUCUACAGUCCGACGAUCUUCAUCUCUUCCAUUGUCAUCCUCAUUCAAAAGCCAACUACAGUAGAAAAAGCAAUGCUAAAAUGCAGAGGAAUCUUCAUUCACUGCCGAAUUUCUUCCCUUUUUUAUGUGUAUGUGAUACAACAGAGGAUUGAGCAUCA
# B13: chr11:33163239:33163240:-_ENSG00000176102_ENST00000323959|hu_hu|FALSE|FALSE (ssRNA)
# RNA: GGGAGUUCUACAGUCCGACGAUCUCUGCCAGAACUGGGGAACUGGGCAACAAGGCGUUCAUAAGUCUUCCGUGCUUUGUCUAUAGGUUGAUUCUGUGCCUCUCGAAUGAGAAUGCUCCAAGCAUCAAGGUCAUAUGGAUUCUCCAACAGAGGAUUGAGCAUCA
# B14: 153236936_153237056_1815_3pUTR_ENSMUSG00000061411_ENSMUST00000109784|mouse|control|control (ssRNA)
# RNA: GGGAGUUCUACAGUCCGACGAUCUAAGGGGAGAGAAAGGGUCCACUUUUGCUCUUCUCAAUAAAUAUGCAAUUCUGCUCACCUAAGACUUGAAAGGUAAUUAUGGGGGGGGGGAGUUCUAACAUCGUGGUCCACAAAGGUGAUCAACAGAGGAUUGAGCAUCA
# B15: chr9:19447105:19447106:+_ENSMUSG00000057551_ENSMUST00000079042|mus_mus|motif|central (ssRNA)
# RNA: GGGAGUUCUACAGUCCGACGAUCUAGGUGUGAGAUGAGGCGGGGUUUGCCAACCUGAUAACCCAGUGAACUUAGAUUGCGGUAAUUCUCCAGCAUUACAUCUUUGUACAGUUUUCUCUGGGAAGAAUCUAGCAGGGGCCACUCCAACAGAGGAUUGAGCAUCA
# B16: chr7:151048522:151048523:+_ENSG00000013374_ENST00000566856|hu_mus|hu_hu_hu_mus_True|1_48 (ssRNA)
# RNA: GGGAGUUCUACAGUCCGACGAUCCUGUUUCUUAUUUAUUACGAUCUUGAUGUAAUUUUCUUGAAAUCCGAAAGUUUCAGCUAUUUGGGACCUCAGUUCUCUACCAGUGACAUGCAAGCGGGUCUCCAACAAGCUUUUCCUAUCCAACAGAGGAUUGAGCAUCA
# B17: chr2:198351390:198351391:-_ENSG00000144381_ENST00000345042|hu_hu|hu_hu_hu_mus_False|48_58 (ssRNA)
# RNA: GGGAGUUCUACAGUCCGACGAUCUCAUUCCCACCCUCCACAGAAAGGCUGCUUCUGAACUCUCAUGUGGUGACACAGCACUAAAAUCCUGAUUUUAACAGAACAGUAGAGAUGCCUCAGUGAUUUAAGUUGAAAGCAGGACACCAACAGAGGAUUGAGCAUCA
# B18: chr4:144391305:144391306:+_ENSG00000109458_ENST00000262995|hu_hu|FALSE|FALSE (ssRNA)
# RNA: GGGAGUUCUACAGUCCGACGAUCGGCACUAUGGUGUCAAAAGACAGAAUUUCAUAGAGUAAUAAAUCUGAAUUACUAUCUAAUUAAAAAUCACAGUAUGUUGCUGUAACUAACAGUGAAUGUCAACUGCUUUAUUAAUUCCAACAACAGAGGAUUGAGCAUCA
# B19: chr19:42637464:42637465:+_ENSMUSG00000025184_ENSMUST00000026188|mus_mus|FALSE|FALSE (ssRNA)
# RNA: GGGAGUUCUACAGUCCGACGAUCAGUCUGAACUUCCCAACAGUCCAUGUCCUUUGGUUUAAAAAGUCUUUGUAAAGGUAUACUAGAUACAAUCCCAGCGUCGGGAGCUCUGUGUUGAUGUUCUUGGGAUGAGGCUUCUGUGGACAACAGAGGAUUGAGCAUCA
# B20: chr1:60041781:60041782:+_ENSMUSG00000041040_ENSMUST00000036540|mus_hu|mus_mus_mus_hu_False|58_108 (ssRNA)
# RNA: GGGAGUUCUACAGUCCGACGAUCAAGAGGAGUGAAUUAAAGUAAAUGCAGUAGUGGCAAAUUUUCUUUUAUUUUCCUUCCUAAAAGAAAAUCUUUAUAACCCAGUCCUAGUCUUGGACAUAGUGAAAGCUAUAAAUUCUGACUCAACAGAGGAUUGAGCAUCA
# B21: chr12:39756943:39756944:-_ENSG00000139116_ENST00000544797|hu_mus|hu_hu_hu_mus_False|38_98 (ssRNA)
# RNA: GGGAGUUCUACAGUCCGACGAUCGGUUUGGCUGUUACCCCCGAGGGAAUCCUGCAAGAGUCUUGUCAGCUUAGAGUCUCUGUAAGGGACAUGGGUGGCCCUCUUGCUCUUGUCCCCCAAGGCGCUGAUUACAUUCCCAAGAGCCAACAGAGGAUUGAGCAUCA
# B22: chr1:149898447:149898448:-_ENSG00000143368_ENST00000271628|hu_hu|FALSE|FALSE (ssRNA)
# RNA: GGGAGUUCUACAGUCCGACGAUCAAGUCGUUCGGCUGCUGAGCCAUGGCGCUCACCCUUGGAGUCCUUCUUGAAGGCAUAAGAUACGGUGAUAGGACGGUUACAGAGGUACUGCCCAUUCAUGGCUUCAAUUGCUGCAUCCGACAACAGAGGAUUGAGCAUCA
# Target: T1, UNK ZnF1-3
# Assay: nsRBNS (natural sequence RNA bind-n-seq); RBNS binding buffer (assumed for nsRBNS): 25 mM Tris pH 7.5, 150 mM KCl, 3 mM MgCl2, 0.01% Triton X-100, 500 ug/ml BSA, 20 U/ml SUPERase-In, 4 C; UNK is unkempt and MSI1 is Musashi-1; names of the RNAs are library labels; protein concentration not given here; high values mean tight binding
row,Binder,binding signal [enrichment R]
1,B1,0.696
2,B2,1.08
3,B3,0.418
4,B4,0.822
5,B5,1.94
6,B6,0.96
7,B7,2.14
8,B8,0.666
9,B9,0.808
10,B10,1.05
11,B11,1.21
12,B12,1.35
13,B13,0.635
14,B14,1.31
15,B15,1.09
16,B16,0.619
17,B17,1.24
18,B18,0.504
19,B19,1
20,B20,0.747
21,B21,0.736
22,B22,0.815
